These results are taken from the supplement of paper PMC11060735.

Where a name gives a salt, the structure may show the parent alone. The whole screen tested about 1,800 compounds, of which about 50 (3%) showed activity. Some of the results follow.
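Also: fibroblasts sorted 14 days after bleomycin, GFP+ and GFP− mixed 1:1 in 384-well plates (GFP− as in-well control), imaged after Hoechst and NucView530 staining, reference wells lacked compound.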

This test deals with mouse p16Ink4a+/- lung fibroblasts (INKBRITE, bleomycin-injured). Briefly: percentage of GFP+ (p16Ink4a+) fibroblasts among all cells in well; higher = less depletion of p16Ink4a+ cells, active = 20 or less. To be noted: 1 µM; 3 days.
For `C=CC(=O)Nc1cccc(Oc2nc(Nc3ccc(N4CCN(C)CC4)cc3)ncc2Cl)c1`, the “percentage of GFP+” value is inactive: 48.2%. The result for `OC[C@@H](O)[C@@H](O)[C@H](O)[C@@H](O)CO` [Sorbitol] reads inactive: 35.5%; that for `OC(CN1CCN(c2cccc(Cl)c2)CC1)C(c1ccccc1)c1ccccc1` (stereo unspecified), inactive: 47.5%; that for `CCOc1nc2cccc(C(=O)OCc3oc(=O)oc3C)c2n1Cc1ccc(-c2ccccc2-c2noc(O)n2)cc1` [Azilsartan medoxomil], inactive: 42.3%. Under `CC(C)Cc1ccc(C(C)C(=O)O)cc1` (racemic) stands inactive: 48.8%.

As to `Cc1cn(-c2cc(NC(=O)c3ccc(C)c(Nc4nccc(-c5cccnc5)n4)c3)cc(C(F)(F)F)c2)cn1` [Nilotinib], the “percentage of GFP+” value is inactive: 36.1%.

Turning to `Cc1nn(-c2ccccc2)c(C)c1/C=N/N1CCN(Cc2ccccc2)CC1`, the “percentage of GFP+” value was inactive: 48.6%. Under `O=c1c(-c2ccc(O)cc2)coc2cc(O)cc(O)c12` [Genistein] stands inactive: 47.5%; under `O=C(Nc1ccc(OC(F)(F)F)cc1)c1sccc1NCc1ccnc2ccccc12`, inactive: 30.4%. Turning to `CC(C)(O)CC[C@@H](O)[C@](C)(O)[C@H]1CC[C@@]2(O)C3=CC(=O)[C@@H]4C[C@@H](O)[C@@H](O)C[C@]4(C)[C@H]3CC[C@]12C` [20-Hydroxyecdysone], the “percentage of GFP+” value is inactive: 38.8%. Under `CCN1CCN(C(=O)N[C@@H](C(=O)N[C@@H]2C(=O)N3C(C(=O)O)=C(CSc4nnnn4C)CS[C@H]23)c2ccc(O)cc2)C(=O)C1=O` [Cefoperazone sodium salt] stands inactive: 37.1%. The result for `O=C(O)C(O)Cc1ccc(O)c(O)c1` (stereo unspecified) [Sodium Danshensu] reads inactive: 40.2%; that for `CNc1ncnc2c1ncn2[C@@H]1O[C@H](CO)[C@@H](O)[C@H]1O` [N6-methyladenosine], inactive: 43.6%. On to `COc1ccc2c(c1)c(CC(=O)OCC(=O)O)c(C)n2C(=O)c1ccc(Cl)cc1` [Acemetacin], for which the “percentage of GFP+” value was inactive: 34.3%. The result for `CS(=O)c1ccc(-c2nc(-c3ccc(F)cc3)c(-c3ccncc3)[nH]2)cc1` (stereo unspecified) reads inactive: 41.1%; that for `O=C(c1cncc(Br)c1)N1CCC(N2CCCC2)CC1`, inactive: 38.2%; that for `CN(C)CCc1c[nH]c2ccc(C[C@H]3COC(=O)N3)cc12` [Zolmitriptan], inactive: 38.5%. The result for `CN(Cc1cc(Br)cc(Br)c1N)C1CCCCC1` [Bromhexine] reads inactive: 36.3%; that for `Cc1ccc([C@@H]2O[C@H](CO)[C@@H](O)[C@H](O)[C@H]2O)cc1Cc1ccc(-c2ccc(F)cc2)s1` [Canagliflozin], inactive: 40.1%; that for `CCCc1nc(C)c2c(O)nc(-c3cc(S(=O)(=O)N4CCN(CC)CC4)ccc3OCC)nn12` [Vardenafil], inactive: 41.9%. Under `NC(=O)N/N=C/c1ccc([N+](=O)[O-])o1` [Nitrofural] stands inactive: 40.2%; under `O=C(/C=C/c1ccc(O)c(O)c1)c1ccc(O)cc1O` [Butein], inactive: 50.8%. As to `CCNC(=O)Nc1ccc(-c2nc3c(c(N4CCOC[C@@H]4C)n2)CCN(C2COC2)C3)cc1`, the “percentage of GFP+” value is inactive: 34.5%.

`C[C@H](Oc1cc(-c2cnn(C3CCNCC3)c2)cnc1N)c1c(Cl)ccc(F)c1Cl` [(S)-crizotinib]: the “percentage of GFP+” value was inactive: 42.1%. The result for `Nc1ccn([C@@H]2O[C@H](CO)[C@@H](O)C2(F)F)c(=O)n1` [Gemcitabine] reads active: 17.1%.

`O=C(O)/C=C/c1ccc(O)c(O)c1` [Caffeic Acid]: the “percentage of GFP+” value is inactive: 41.9%.

Consider `NC(=O)c1ncn([C@@H]2O[C@H](CO)[C@@H](O)[C@H]2O)c1N` [Acadesine], for which the “percentage of GFP+” value was inactive: 36.7%. Under `O=C(O)Cc1cccc(OCCCN(Cc2cccc(C(F)(F)F)c2Cl)CC(c2ccccc2)c2ccccc2)c1` stands inactive: 43.7%. In the case of `N=C(N)N` [Guanidine], the “percentage of GFP+” value is inactive: 47.6%. Under `CC1(C)S[C@@H]2[C@H](NC(=O)C(C(=O)O)c3ccccc3)C(=O)N2[C@H]1C(=O)O` (stereo partly specified) [Carbenicillin] stands inactive: 45.8%; under `Cc1cc(C)c(CNC(=O)c2cc(-c3ccc(CN4CCOCC4)cc3)cc3c2cnn3C2CCCC2)c(O)n1`, inactive: 49.7%; under `CN(C)C(=O)C(CCN1CCC(O)(c2ccc(Cl)cc2)CC1)(c1ccccc1)c1ccccc1` [Loperamide], inactive: 43.3%. Consider `CN(C)CCC=C1c2ccccc2CCc2ccccc21` [Amitriptyline], for which the “percentage of GFP+” value was inactive: 57%.

Consider `COC(=O)Nc1nc2cc(C(=O)c3ccc(F)cc3)ccc2[nH]1` [Flubendazole], for which the “percentage of GFP+” value is inactive: 34.5%.

`O[C@@H](CNC[C@H](O)[C@H]1CCc2cc(F)ccc2O1)[C@@H]1CCc2cc(F)ccc2O1` [Nebivolol]: the “percentage of GFP+” value was inactive: 47.6%.

Take `CN1CCN(c2cccc(Nc3nc4c(-c5ccc(S(C)(=O)=O)cc5)cccn4n3)c2)CC1`: the “percentage of GFP+” value was inactive: 50%.

Take `NCCCCCNCC12CC3CC(CC(C3)C1)C2` [dihydrobroMide]: the “percentage of GFP+” value was inactive: 44.7%. Under `C[C@H](NC(=O)[C@@H](O)c1cc(F)cc(F)c1)C(=O)N[C@@H]1C(=O)N(C)c2ccccc2-c2ccccc21` stands inactive: 54%. The result for `CCCCNc1cc(C(=O)O)cc(S(N)(=O)=O)c1Oc1ccccc1` [Bumetanide] reads inactive: 33%. The result for `O=C(NCc1ccc(Oc2ccccc2)cc1)c1nc(-c2cc(Br)c(O)c(Br)c2)no1` reads inactive: 49.1%. As to `C[C@H]1COc2c(N3CCN(C)CC3)c(F)cc3c(=O)c(C(=O)O)cn1c23` [Levofloxacin], the “percentage of GFP+” value was inactive: 52.8%. Under `NC(=O)c1noc([C@H](CCCC2CCCCC2)CC(=O)NO)n1` stands inactive: 47%; under `Cc1cccc(CN2CCN(C(c3ccccc3)c3ccc(Cl)cc3)CC2)c1` (stereo unspecified) [Meclizine], inactive: 49.2%. The result for `CC(C)c1nc(CN(C)C(=O)N[C@@H](CCN2CCOCC2)C(=O)N[C@H](CC[C@H](Cc2ccccc2)NC(=O)OCc2cncs2)Cc2ccccc2)cs1` [Cobicistat] reads inactive: 43.4%; that for `CCN(CC)C(=S)SSC(=S)N(CC)CC` [Disulfiram], inactive: 39%; that for `CN(C)C(=O)[C@H](O)[C@H](Cc1ccccc1)NC(=O)c1cc2cc(Cl)ccc2[nH]1`, inactive: 54.4%.
